Test results reported in the supplement of paper PMC8728848.
The list shows a part of the results.

Legend:
Experiment in all cases: glycan array binding signal (z-score within array); higher = stronger binding
Conditions in all cases: glycan notation: IUPAC condensed, linker removed
[1] = molecular target: GlcNAc(b1-3)Gal(b1-4)GlcNAc(b1-2)[GlcNAc(b1-3)Gal(b1-4)GlcNAc(b1-6)]Man(a1-6)[GlcNAc(b1-3)Gal(b1-4)GlcNAc(b1-2)Man(a1-3)]Man(b1-4)GlcNAc(b1-4)GlcNAc
How it was run: (§1)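 From the Consortium for Functional Glycomics database, 3228 arrays were curated, keeping only those whose protein sequence was available. Binding is given as a within-array Z-score averaged across arrays sharing a protein sequence and across linkers. Negative Z-scores can be read as non-binding.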

[2] = molecular target: GlcNAc(b1-3)Gal(b1-4)GlcNAc(b1-3)Gal(b1-4)GlcNAc
How it was run: as §1

[3] = molecular target: GlcNAc(b1-3)Gal(b1-4)GlcNAc(b1-3)Gal(b1-4)GlcNAc(b1-2)Man(a1-3)[GlcNAc(b1-3)Gal(b1-4)GlcNAc(b1-3)Gal(b1-4)GlcNAc(b1-2)Man(a1-6)]Man(b1-4)GlcNAc(b1-4)GlcNAc
How it was run: as §1

[4] = molecular target: GlcNAc(b1-3)Gal(b1-4)GlcNAc(b1-3)Gal(b1-4)GlcNAc(b1-2)Man(a1-3)[GlcNAc(b1-3)Gal(b1-4)GlcNAc(b1-3)Gal(b1-4)GlcNAc(b1-2)Man(a1-6)]Man(b1-4)GlcNAc(b1-4)[Fuc(a1-6)]GlcNAc
How it was run: as §1

[5] = molecular target: GlcNAc(b1-3)Gal(b1-4)GlcNAc(b1-3)Gal(b1-4)GlcNAc(b1-2)[GlcNAc(b1-3)Gal(b1-4)GlcNAc(b1-3)Gal(b1-4)GlcNAc(b1-6)]Man(a1-6)[GlcNAc(b1-3)Gal(b1-4)GlcNAc(b1-3)Gal(b1-4)GlcNAc(b1-2)Man(a1-3)]Man(b1-4)GlcNAc(b1-4)[Fuc(a1-6)]GlcNAc
How it was run: as §1

[6] = molecular target: GlcNAc(b1-3)Gal(b1-4)GlcNAc(b1-3)Gal(b1-4)GlcNAc(b1-3)Gal(b1-4)GlcNAc(b1-2)Man(a1-3)[GlcNAc(b1-3)Gal(b1-4)GlcNAc(b1-3)Gal(b1-4)GlcNAc(b1-3)Gal(b1-4)GlcNAc(b1-2)Man(a1-6)]Man(b1-4)GlcNAc(b1-4)GlcNAc
How it was run: as §1

[7] = molecular target: GlcNAc(b1-3)Gal(b1-4)GlcNAc(b1-3)Gal(b1-4)GlcNAc(b1-3)Gal(b1-4)GlcNAc(b1-2)Man(a1-3)[GlcNAc(b1-3)Gal(b1-4)GlcNAc(b1-3)Gal(b1-4)GlcNAc(b1-3)Gal(b1-4)GlcNAc(b1-2)Man(a1-6)]Man(b1-4)GlcNAc(b1-4)[Fuc(a1-6)]GlcNAc
How it was run: as §1

[8] = molecular target: GlcNAc(b1-3)Gal(b1-4)GlcNAc(b1-3)Gal(b1-4)GlcNAc(b1-3)Gal(b1-4)GlcNAc(b1-2)[GlcNAc(b1-3)Gal(b1-4)GlcNAc(b1-3)Gal(b1-4)GlcNAc(b1-3)Gal(b1-4)GlcNAc(b1-6)]Man(a1-6)[GlcNAc(b1-3)Gal(b1-4)GlcNAc(b1-3)Gal(b1-4)GlcNAc(b1-3)Gal(b1-4)GlcNAc(b1-2)Man(a1-3)]Man(b1-4)GlcNAc(b1-4)[Fuc(a1-6)]GlcNAc
How it was run: as §1

[9] = molecular target: GlcNAc(b1-3)Gal(b1-4)GlcNAc(b1-3)Gal(b1-4)GlcNAc(b1-3)Gal(b1-4)GlcNAc(b1-3)Gal(b1-4)GlcNAc(b1-2)Man(a1-3)[GlcNAc(b1-3)Gal(b1-4)GlcNAc(b1-3)Gal(b1-4)GlcNAc(b1-3)Gal(b1-4)GlcNAc(b1-3)Gal(b1-4)GlcNAc(b1-2)Man(a1-6)]Man(b1-4)GlcNAc(b1-4)GlcNAc
How it was run: as §1

[10] = molecular target: GlcNAc(b1-3)Gal(b1-4)GlcNAc(b1-3)Gal(b1-4)GlcNAc(b1-3)Gal(b1-4)GlcNAc(b1-3)Gal(b1-4)GlcNAc(b1-2)Man(a1-3)[GlcNAc(b1-3)Gal(b1-4)GlcNAc(b1-3)Gal(b1-4)GlcNAc(b1-3)Gal(b1-4)GlcNAc(b1-3)Gal(b1-4)GlcNAc(b1-2)Man(a1-6)]Man(b1-4)GlcNAc(b1-4)[Fuc(a1-6)]GlcNAc
How it was run: as §1

[11] = molecular target: GlcNAc(b1-3)Gal(b1-4)GlcNAc(b1-3)Gal(b1-4)GlcNAc(b1-3)Gal(b1-4)GlcNAc(b1-3)Gal(b1-4)GlcNAc(b1-2)[GlcNAc(b1-3)Gal(b1-4)GlcNAc(b1-3)Gal(b1-4)GlcNAc(b1-3)Gal(b1-4)GlcNAc(b1-3)Gal(b1-4)GlcNAc(b1-6)]Man(a1-6)[GlcNAc(b1-3)Gal(b1-4)GlcNAc(b1-3)Gal(b1-4)GlcNAc(b1-3)Gal(b1-4)GlcNAc(b1-3)Gal(b1-4)GlcNAc(b1-2)Man(a1-3)]Man(b1-4)GlcNAc(b1-4)[Fuc(a1-6)]GlcNAc
How it was run: as §1

[12] = molecular target: GlcNAc(b1-3)Gal(b1-4)GlcNAc(b1-3)Gal(b1-4)GlcNAc(b1-3)GalNAc
How it was run: as §1

[13] = molecular target: GlcNAc(b1-3)Gal(b1-4)GlcNAc(b1-3)GalNAc
How it was run: as §1

[14] = molecular target: GlcNAc(b1-3)Gal(b1-4)GlcNAc(b1-3)[GlcNAc(b1-3)Gal(b1-4)GlcNAc(b1-3)]GalNAc
How it was run: as §1

[15] = molecular target: GlcNAc(b1-3)Gal(b1-4)GlcNAc(b1-6)[Gal(b1-3)]GalNAc
How it was run: as §1

[16] = molecular target: GlcNAc(b1-3)Gal(b1-4)GlcNAc(b1-6)[GlcNAc(b1-3)Gal(b1-3)]GalNAc
How it was run: as §1

[17] = molecular target: GlcNAc(b1-3)Gal(b1-4)GlcNAc(b1-6)[GlcNAc(b1-3)]Gal(b1-4)GlcNAc
How it was run: as §1

[18] = molecular target: GlcNAc(b1-3)GalNAc
How it was run: as §1

[19] = molecular target: GlcNAc(b1-3)Man
How it was run: as §1

[20] = molecular target: GlcNAc(b1-3)[GlcNAc(b1-4)][GlcNAc(b1-6)]GlcNAc
How it was run: as §1

[21] = molecular target: GlcNAc(b1-3)[GlcNAc(b1-6)]Gal(b1-4)GlcNAc
How it was run: as §1

[22] = molecular target: GlcNAc(b1-3)[GlcNAc(b1-6)]GalNAc
How it was run: as §1

[23] = molecular target: GlcNAc(b1-4)Gal(b1-4)GlcNAc
How it was run: as §1

[24] = molecular target: GlcNAc(b1-4)GlcNAc
How it was run: as §1

[25] = molecular target: GlcNAc(b1-4)GlcNAc(b1-4)GlcNAc
How it was run: as §1

[26] = molecular target: GlcNAc(b1-4)GlcNAc(b1-4)GlcNAc(b1-4)GlcNAc(b1-4)GlcNAc
How it was run: as §1

[27] = molecular target: GlcNAc(b1-4)GlcNAc(b1-4)GlcNAc(b1-4)GlcNAc(b1-4)GlcNAc(b1-4)GlcNAc
How it was run: as §1

[28] = molecular target: GlcNAc(b1-4)[GlcNAc(b1-6)]GalNAc
How it was run: as §1

[29] = molecular target: GlcNAc(b1-6)Gal(b1-4)GlcNAc
How it was run: as §1

[30] = molecular target: GlcNAc(b1-6)GalNAc
How it was run: as §1

[31] = molecular target: GlcNAc3Prop(b1-4)GlcNAc
How it was run: as §1

[32] = molecular target: GlcNAc6S(b1-3)Gal(b1-4)GlcNAc
How it was run: as §1

[33] = molecular target: Kdn(a2-3)Gal(b1-3)GalNAc
How it was run: as §1

[34] = molecular target: Kdn(a2-3)Gal(b1-3)GlcNAc
How it was run: as §1

[35] = molecular target: Kdn(a2-3)Gal(b1-4)Glc
How it was run: as §1

[36] = molecular target: Kdn(a2-3)Gal(b1-4)GlcNAc
How it was run: as §1

[37] = molecular target: Kdn(a2-3)Gal(b1-4)[Fuc(a1-3)]GlcNAc
How it was run: as §1

[38] = molecular target: Kdn(a2-6)Gal(b1-4)GlcNAc
How it was run: as §1

B1: MGL6A (Homo sapiens) (protein)
chain: MTRTYENFQYLENKVKVQGFKNGPLPLQSLLQRLCSGPCHLLLSLGLGLLLLVIICVVGFQNSKFQRDLVTLRTDFSNFTSNTVAEIQALTSQGSSLEETIASLKAEVEGFKQERQAVHSEMLLRVQQLVQDLKKLTCQVATLNNNGEEASTEGTCCPVNWVEHQDSCYWFSHSGMSWAEAEKYCQLKNAHLVVINSREEQNFVQKYLGSAYTWMGLSDPEGAWKWVDGTDYATGFQNWKPGQPDDWQGHGLGGGEDCAHFHPDGRWNDDVCQRPYHWVCEAGLGQTSQESH
With B1 the “glycan array binding signal (z-score)” value [1] was -0.169, the “glycan array binding signal (z-score)” value [2] was 0.5 and the “glycan array binding signal (z-score)” value [3] was -0.235. For the same binder, the “glycan array binding signal (z-score)” value [4] was -0.216, the “glycan array binding signal (z-score)” value [5] was -0.226 and the “glycan array binding signal (z-score)” value [6] was -0.223. The “glycan array binding signal (z-score)” value [7] was -0.246, the “glycan array binding signal (z-score)” value [8] was -0.213 and the “glycan array binding signal (z-score)” value [9] was -0.262. For the same binder, the “glycan array binding signal (z-score)” value [10] was -0.225, the “glycan array binding signal (z-score)” value [11] was -0.218 and the “glycan array binding signal (z-score)” value [12] was -0.224. For the same binder, the “glycan array binding signal (z-score)” value [13] was -0.327, the “glycan array binding signal (z-score)” value [14] was -0.284 and the “glycan array binding signal (z-score)” value [15] was -0.282. For the same binder, the “glycan array binding signal (z-score)” value [16] was -0.261, the “glycan array binding signal (z-score)” value [17] was -0.266 and the “glycan array binding signal (z-score)” value [18] was -0.185. The “glycan array binding signal (z-score)” value [19] was -0.243, the “glycan array binding signal (z-score)” value [20] was -0.289 and the “glycan array binding signal (z-score)” value [21] was -0.28. The “glycan array binding signal (z-score)” value [22] was -0.288, the “glycan array binding signal (z-score)” value [23] was -0.292 and the “glycan array binding signal (z-score)” value [24] was -0.303. The “glycan array binding signal (z-score)” value [25] was -0.268, the “glycan array binding signal (z-score)” value [26] was -0.293 and the “glycan array binding signal (z-score)” value [27] was -0.3. The “glycan array binding signal (z-score)” value [28] was -0.344, the “glycan array binding signal (z-score)” value [29] was -0.251 and the “glycan array binding signal (z-score)” value [30] was 3.72. The “glycan array binding signal (z-score)” value [31] was -0.542, the “glycan array binding signal (z-score)” value [32] was -0.213 and the “glycan array binding signal (z-score)” value [33] was -0.265. For the same binder, the “glycan array binding signal (z-score)” value [34] was -0.237, the “glycan array binding signal (z-score)” value [35] was -0.267 and the “glycan array binding signal (z-score)” value [36] was -0.282. The “glycan array binding signal (z-score)” value [37] was -0.251 and the “glycan array binding signal (z-score)” value [38] was -0.316.
